Measurements taken from PubChem BioAssay AID488969 (Vanderbilt High Throughput Screening Facility, 2010).
The full ranking holds about 110,000 compounds; the median of “z-score” is about -0.1, and the highest 2% start at about 2. The list shows a part of the results. The source made the active and inactive calls.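 Rule for the calls: active = z-score in the third read window above 3 or below -3; inactive = the rest.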

What follows are compounds tested against Metabotropic glutamate receptor 8 (Rattus norvegicus) (UniProt P70579) (assay: mGluR8 Gi/Go-coupled signaling modulation – cell-based, rat, thallium flux, HTS, primary screen (AID 488969)). Settings: HEK293 rat mGluR8, GIRK (G protein-gated inwardly rectifying potassium channel) thallium flux, FluoZin2; at 10 µM; stronger effect = higher value; submaximal glutamate (EC20) added with thallium.
Chain of UniProt P70579 (P70579 whole entry, looked up): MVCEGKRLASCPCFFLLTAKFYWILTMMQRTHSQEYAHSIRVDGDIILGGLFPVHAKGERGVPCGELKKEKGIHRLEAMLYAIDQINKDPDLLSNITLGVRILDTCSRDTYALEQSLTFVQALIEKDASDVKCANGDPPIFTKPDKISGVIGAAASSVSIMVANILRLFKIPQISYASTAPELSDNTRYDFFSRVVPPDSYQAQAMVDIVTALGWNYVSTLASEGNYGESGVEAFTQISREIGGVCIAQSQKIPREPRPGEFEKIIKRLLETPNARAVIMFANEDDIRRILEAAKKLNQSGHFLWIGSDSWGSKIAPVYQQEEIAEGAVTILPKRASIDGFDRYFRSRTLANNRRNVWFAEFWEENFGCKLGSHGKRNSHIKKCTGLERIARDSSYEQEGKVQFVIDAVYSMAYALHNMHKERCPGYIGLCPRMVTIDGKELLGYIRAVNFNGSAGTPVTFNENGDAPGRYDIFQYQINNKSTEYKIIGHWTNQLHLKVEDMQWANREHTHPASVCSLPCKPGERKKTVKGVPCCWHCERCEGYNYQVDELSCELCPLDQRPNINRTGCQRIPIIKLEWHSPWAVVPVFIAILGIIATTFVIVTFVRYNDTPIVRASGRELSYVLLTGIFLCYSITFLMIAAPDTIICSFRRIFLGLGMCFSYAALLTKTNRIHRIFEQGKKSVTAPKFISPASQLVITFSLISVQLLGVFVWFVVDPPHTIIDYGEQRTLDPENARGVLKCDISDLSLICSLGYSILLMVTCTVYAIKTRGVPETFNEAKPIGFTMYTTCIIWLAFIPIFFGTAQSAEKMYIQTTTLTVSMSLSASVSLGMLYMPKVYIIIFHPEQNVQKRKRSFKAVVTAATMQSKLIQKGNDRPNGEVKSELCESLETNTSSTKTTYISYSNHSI

In order of falling z-score:
1. O=C(N1CCCCCC1)N1CCN(C(=O)N2CCOCC2)CC1  1.56
2. O=c1ccc2ccc(OCc3nnc(-c4ccccc4Br)o3)cc2o1  1.13
3. COc1ccccc1/C=C/C1(C(=O)NC2CCCC2)CC(=O)N1c1ccc(F)cc1 (stereo unspecified)  0.761
4. Cc1ccsc1C(=O)OCC(=O)c1cc2ccccc2o1  0.678
5. Cc1nn(-c2nnc(C)c(=O)[nH]2)c(C)c1SCC(=O)Nc1ccc(F)cc1  0.576
6. Cc1ccccc1C(=O)NC1CCN(CC(=O)Nc2nccs2)CC1  0.51
7. Cc1ccnc(N2CCCC(C(=O)Nc3cc(F)ccc3C)C2)n1 (stereo unspecified)  0.469
8. Cc1cc(S(=O)(=O)NCC(C)C)ccc1OCC(=O)NCc1ccccn1  0.417
9. CC(C)NC(=O)CC(=O)N/N=C/c1ccc(F)cc1  0.401
10. Cc1cc(=O)c2c(o1)CC(C)(C)CC2=O  0.362
11. O=C(CSc1ncnc2c1nnn2-c1ccc(F)cc1)NCC1CCCO1 (stereo unspecified)  0.335
12. CCOC(=O)c1c(N)sc(C(=O)N2CCCC(C(N)=O)C2)c1C (stereo unspecified)  0.334
13. COc1ccc2c(c1)SCC/C2=C\CN1C(=O)CCC1=O  0.23
14. COc1cccc2c(=S)c(CCC(C)=O)c(C)[nH]c12  0.214
15. COCc1cc(C)nc(OCC(=O)N/N=C/c2ccc(OC)c(O)c2)c1C#N  0.151
16. CN(C)CCNC(=O)/C(=C/c1cccc([N+](=O)[O-])c1)NC(=O)c1ccccc1  0.133
17. Cc1cccc(NC(c2ccc(C)s2)c2ccc3ccc(C)nc3c2O)n1 (stereo unspecified)  0.129
18. CSc1nc(Oc2ccc(=O)n(C)n2)nc(N(C)C)n1  0.0793
19. COc1cccc(C2CC(c3ccc(C(C)C)cc3)n3nc(N)nc3N2)c1 (stereo unspecified)  0.0624
20. O=C(CSCc1ccc(Cl)cc1)NCc1ccc2c(c1)OCO2  0.0576
21. N#Cc1cc(-c2ccccc2)nc(Oc2ccc(Cl)cc2)n1  0.0418
22. CC(=O)c1cccc(S(=O)(=O)N2CCC(n3nnc4cc(F)ccc43)CC2)c1  0.0157
23. CCOc1ccc(CNCc2cccnc2)cc1  0.0145
24. Clc1ccc2nc(N3CCN(c4ccccc4)CC3)sc2c1  0.0118
25. COc1ccc(/C=C/c2c([N+](=O)[O-])c(=O)n(C)c(=O)n2C)cc1O  0.00753
26. S=C1NCCc2ccc(Cl)cc2C1c1ccccc1 (stereo unspecified)  -0.00171
27. Cc1cc2cc(NC(=O)c3ccco3)ccc2[nH]1  -0.00388
28. COCCOC(=O)C1=C(C)NC(=O)CC1c1cc2c(cc1Br)OCO2 (stereo unspecified)  -0.00397
29. CC1(C)CC(NC(=O)c2ccc3c(c2)OCO3)CC(C)(C)N1  -0.0195
30. COC(=O)Cc1c(C)nc2nc[nH]n2c1=O  -0.0384
31. CCN1CCN(C(=O)CCc2nc3ccccc3c(=O)[nH]2)CC1  -0.0416
32. Cc1nn(CC(=O)NCCc2ccc(Cl)cc2)c(C)c1[N+](=O)[O-]  -0.0447
33. COc1ccc(/C=C/C(=O)NC2CCCCCC2)cc1S(=O)(=O)N1CCOCC1  -0.0462
34. Cc1cccc(N2CC(C(=O)O)CC2=O)c1 (stereo unspecified)  -0.0773
35. Cc1ccc(S(=O)(=O)N2CCC(C(=O)Nc3ccc4c(c3)OCO4)CC2)cc1  -0.0915
36. N#CCCN1CCN(S(=O)(=O)c2ccc(S(=O)(=O)NC3CCCC3)cc2)CC1  -0.096
37. O=C(NCc1ccco1)C1CCCCN1S(=O)(=O)c1ccc(F)cc1 (stereo unspecified)  -0.0967
38. COc1ccc(C2C(C(=O)NCc3ccco3)CCC(=O)N2c2ccc(OC)cc2)cc1 (stereo unspecified)  -0.111
39. CN(C)c1ccc(CNn2cnnc2)cc1  -0.119
40. Cc1ccc(C)c(N2C(=O)CS/C2=N\NC(=O)c2ccccc2Cl)c1  -0.125
41. CN1C(=O)/C(=C2\SC(=S)N(C(CCC(=O)O)C(=O)O)C2=O)c2ccccc21 (stereo unspecified)  -0.14
42. CCOC(CCn1c(SCc2ccc([N+](=O)[O-])cc2)nc2ccccc2c1=O)OCC  -0.144
43. CCOC(=O)CSc1ncnc2c(C(=O)OCC)c3n(c12)CCC3  -0.147
44. COC(=O)c1ccc(NC(=O)c2ccccc2NS(C)(=O)=O)cc1  -0.151
45. O=C(COc1ccc(C(=O)c2ccccc2)cc1)NCC(=O)Nc1ccccc1Br  -0.161
46. NC(=O)c1ccc([N+](=O)[O-])cc1SCc1ccccc1  -0.165
47. CC(NC(=O)/C=C/c1ccco1)c1nc2ccccc2n1Cc1ccccc1F (stereo unspecified)  -0.166
48. COc1ccc(Nc2ncc(C(=O)N3CCN(c4ccc(F)cc4)CC3)c3ccccc23)cc1  -0.169
49. CN(C)/C=C(/C(=O)c1ccccc1Cl)S(=O)(=O)c1ccccc1  -0.17
50. COC(=O)c1[nH]c(=O)c2ccccc2c1O  -0.232
51. Cc1ccc(/C=C/C(=O)NC(=S)N2CCN(C)CC2)cc1  -0.241
52. Cc1cc(C)c(C#N)c(SC(F)F)n1  -0.254
53. Cc1ccc2nc(-c3cccc(N)c3)oc2c1  -0.271
54. C/C(=N\NC(=O)C1(C)CC1(Br)Br)c1cccc(NC(=O)C(C)(C)C)c1 (stereo unspecified)  -0.28
55. COc1ccc(NC(=O)N2CC(C)OC(C)C2)cc1OC (stereo unspecified)  -0.307
56. CCC(C)NS(=O)(=O)c1ccc(OCC(=O)N2CCC(C)CC2)cc1 (stereo unspecified)  -0.31
57. Cc1ccc(S(=O)(=O)NC(C)(C)CSc2nnc(N)s2)cc1  -0.314
58. O=C(CNC(=O)c1cccc(OC(F)F)c1)OCc1cc(=O)n2cc(Br)ccc2n1  -0.323
59. COc1cc(C(c2nnnn2C2CCCC2)N2CCc3ccccc3C2)ccc1O (stereo unspecified)  -0.404
60. Cc1cc(NS(=O)(=O)c2ccccc2)cc(Cl)c1O  -0.424
61. Cc1ccc(C(=O)NC2CCCCCC2)o1  -0.461
62. CCOC(=O)/C(N=Nc1ccc(F)cc1)=C(/O)c1ccc([N+](=O)[O-])cc1  -0.494
63. CCOC(=O)/C(C#N)=C\c1ccco1  -0.494
64. COc1ccccc1NC(=O)Cc1noc(CSc2cc(C)c3ccccc3n2)n1  -0.517
65. Nc1nc(CSc2ccccn2)nc(Nc2ccccc2)n1  -0.528
66. Cc1ccc(C)c(NS(=O)(=O)c2ccc(OCC(=O)NCc3cccnc3)cc2)c1  -0.622
67. Cc1ccc(S(=O)(=O)N2CCOCC2)cc1NC(=O)Cn1cc(C(F)(F)F)cc(Cl)c1=O  -0.641
68. COC(=O)c1[nH]c2ccc(C)cc2c1NC(=O)CN1CCN(C(=O)c2ccccc2)CC1  -0.752
69. O=C(Nc1nccs1)c1cnccn1  -0.96
70. COc1ccc(C(C(=O)NC2CCCC2)N(C(=O)c2snc(-c3ccc(F)cc3)c2N)c2cccc(F)c2)cc1 (stereo unspecified)  -1.66

`O=C(Cc1csc(Nc2nc(=S)[nH]c3ccccc23)n1)NCc1cccc(Cl)c1` was tested, and the z-score was active: 6.85.
